Assay results published in PubChem BioAssay AID1159614 (National Center for Advancing Translational Sciences (NCATS), 2016).
The whole screen tested about 45,000 compounds, of which about 65 (0.1%) were called active. Calls come from the whole dose curve; as a rule, active = well fitted activation curve with a large enough effect; inconclusive = small, poorly fitted or top-dose-only effect; inactive = no such curve, though single readings can be large or run the other way. This is one part of the list.

These compounds were tested against Galactocerebrosidase (Homo sapiens) (UniProt P54803) (assay: A Novel Cell-Based Assay to Identify Small Molecules for B -Galactocerebrosidase). Settings: 145M-Twi-hGALC-G270D cells (Twitcher mouse brain line with human GALC G270D), HMU-beta-Gal fluorescence, 48 h; series mostly up to 57.5 µM; activation: at the top concentration.
Sequence of UniProt P54803 (P54803 whole entry, looked up): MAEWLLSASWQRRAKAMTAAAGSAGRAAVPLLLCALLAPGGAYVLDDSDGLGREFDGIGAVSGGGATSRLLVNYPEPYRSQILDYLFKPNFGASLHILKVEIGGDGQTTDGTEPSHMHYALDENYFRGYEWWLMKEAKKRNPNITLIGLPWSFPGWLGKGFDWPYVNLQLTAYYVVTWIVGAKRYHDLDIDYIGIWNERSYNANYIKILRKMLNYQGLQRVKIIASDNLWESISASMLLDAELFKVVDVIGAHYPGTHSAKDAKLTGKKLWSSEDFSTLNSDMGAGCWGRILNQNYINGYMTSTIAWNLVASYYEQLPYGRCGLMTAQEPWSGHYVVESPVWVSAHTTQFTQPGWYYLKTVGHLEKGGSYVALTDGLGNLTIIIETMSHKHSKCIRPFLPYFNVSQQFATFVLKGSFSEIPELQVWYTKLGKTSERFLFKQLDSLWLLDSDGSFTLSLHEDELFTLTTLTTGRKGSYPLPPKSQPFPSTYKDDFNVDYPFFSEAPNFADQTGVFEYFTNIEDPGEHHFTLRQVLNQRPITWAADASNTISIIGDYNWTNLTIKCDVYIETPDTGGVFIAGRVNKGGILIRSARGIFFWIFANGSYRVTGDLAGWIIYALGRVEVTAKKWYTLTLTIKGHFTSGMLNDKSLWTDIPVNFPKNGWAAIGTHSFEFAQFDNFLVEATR
Method in brief: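 Live 145M-Twi cells (Twitcher mouse brain-derived, GALC-null) stably expressing human GALC-G270D, with a wild-type GALC line, were compound-treated. Residual GALC activity was then read as fluorescence from 0.1 mM final HMU-β-gal at pH 5.2; higher signal means activation.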
Note: 0% is about no effect; nearly all actives have a fitted effect of over 65% in size.

activation, inactive:
O=C(NCc1ccccc1)C(=O)NCC(c1ccco1)S(=O)(=O)c1ccc(Cl)cc1 (centres undefined) -8.44%
CCOc1ccc(NC(=O)CN2CCN(S(=O)(=O)c3ccc(OC)cc3)CC2)cc1 -11.7%
CCOc1cc(OCC)cc(C(=O)Nc2cccc(-c3nc4ccccc4[nH]3)c2)c1 -21.2%
COc1cccc(Cn2c(=O)n(-c3cccc(Cl)c3)c(=O)c3c4c(sc32)CN(C(C)=O)CC4)c1 -33.4%
C=CCC(CC=C)(CNC(=O)C(=O)Nc1ccc(C)cc1)c1ccccc1 21.7%
CSc1ncc(Cl)c(C(=O)Nc2ccc(S(=O)(=O)Nc3nccc(C)n3)cc2)n1 -8.3%
CC(=O)c1ccc(NC(=O)CCc2c(C)nc3c(c2C)c(=O)n(C)c(=O)n3C)cc1 -1.43%
CC(=O)C1=C(c2ccccc2)N(C(C)=O)n2c(nnc2C2CCCCC2)S1 -26.8%
CCCCN(C)CCCNC(=O)CN1N=C(c2ccc(OC)cc2)CCC1=O -5.14%
Cc1c2cnn(CC(=O)N3CCN(c4ccccc4)CC3)c(=O)c2c(C)n1Cc1ccccc1Cl -26.1%
CC1=C(C)C(=O)C(C(CCCCCC(=O)O)c2ccccc2)=C(C)C1=O (centres undefined) -6.46%
CCCCN(C)CCCNC(=O)C1CCN(S(=O)(=O)CC)CC1 -10.3%
Cc1ccc(CCNC(=O)c2ccc3[nH]c(C)c(C)c3c2)cc1 9.8%
Cc1cc(C)cc(-n2cnc3cc(C(=O)NC4CCCCCC4)ccc32)c1 -0.305%
COc1ccc(CCNC(=O)c2cc3n(n2)CCCN(Cc2ccc(C)cc2)C3=O)cc1OC -14.3%
CCN(CC)c1ccc(NC(=O)CN2CCN(c3ccccc3F)CC2)cc1 -7.3%
Cc1[nH]c2ccc(Br)cc2c1CCNC(=O)c1cc2ccccc2oc1=O -3.7%
O=C(O)Cn1cnnn1 -11.3%
COC(=O)CN1C(=O)C(C)(C)c2cc(S(=O)(=O)Nc3ccc(Br)cc3F)ccc21 -23.5%
CCOc1ccc(C2=NC(c3cccs3)=Nc3ccc(CC)cc3N2)cc1OCC -6%
O=S(=O)(NCCS(=O)(=O)N1CCN(c2cccc(Cl)c2)CC1)c1ccc(F)cc1 -15.3%
O=C(NCc1ccccc1F)c1sc2ncccc2c1-n1cccc1 -15.3%
CCn1cc2nc(SCC(=O)Nc3ccc(C)cc3)n(Cc3ccc(C)cc3)c(=O)c2n1 -17.7%
Cc1cc(C)n(CCc2nc3c4ccccc4nc(N4CCN(c5cccc(C)c5C)CC4)n3n2)n1 -18.5%
Cc1cccc(NC(=O)CN2C(=O)C(c3ccccc3)=NC23CCC(C)CC3)c1 (centres undefined) -10.4%
CC(=O)c1cccc(-n2c(=O)c3c4c(sc3n(Cc3cccc(C)c3)c2=O)CN(C(C)=O)CC4)c1 -16.3%
COc1ccc(-n2nc3cc(C)c(NC(=O)c4ccc(-c5ccc(Br)cc5)o4)cc3n2)cc1 -12.1%
CNCCc1ccccn1 -18.1%
CC(=O)N1CCCc2cc(S(=O)(=O)N3CCCC(C(=O)Nc4ccc(C)cc4C)C3)ccc21 (centres undefined) -24.8%
COCCNC(=O)C1CCN(Cc2cc3ccccc3n2Cc2ccc(C)cc2)CC1 -13.1%
COCCn1c(CNC(=O)c2cccc(C)c2)nc2cccnc21 -7.47%
COc1ccc(NC(=O)c2ccc(NC(=O)N3CCSc4ncccc43)cc2)cc1 -6.3%
COc1ccccc1NC(=O)C1=C(C)Nc2nc(SCc3ccccc3)nn2C1c1cccc(O)c1 (centres undefined) 20.8%
CCCCNC(=O)C(CC)Sc1nc2ccccc2c(=O)n1Cc1ccco1 (centres undefined) -14.5%
COCCCNC(=O)Cn1c(=O)n(-c2ccc(C)c(C)c2)c(=O)c2c3c(sc21)CCCCC3 -11.7%
COc1ccccc1CNC(=O)c1ccc2[nH]c(C)c(C)c2c1 -4.91%
COc1ccc(NC(=O)c2nnn(Cc3nc(-c4cc(OC)c(OC)c(OC)c4)oc3C)c2C)cc1Cl 10.7%
O=C(COc1ccc(F)cc1)Nc1nnc(S(=O)(=O)N2CCCC2)s1 -2.31%
COc1ccc(OC)c(NS(=O)(=O)c2ccc(-n3cccn3)cc2)c1 -4.28%
CCOC(=O)c1cccc(NC(=O)Cn2c(=O)c3cccn3c3ccccc32)c1 -31.2%
Cc1ccc(C(=O)c2sc(Nc3ccccc3)c(S(=O)(=O)c3ccccc3)c2N)c(C)c1 -22.8%
Cc1cccc(N(C)S(=O)(=O)c2nnc(NC(=O)c3cccs3)s2)c1 -10.8%
Cc1cc(C)n2nc(CNC(=O)c3c(F)cccc3F)nc2n1 -19.3%
NCCCCCC(=O)O -19.7%
COCCNC(=O)c1sc2ncccc2c1-n1c(C)ccc1C -15.3%
CCC(C)n1c(=O)c2sccc2n2c(CCCC(=O)NCc3ccccc3Cl)nnc12 (centres undefined) -7.69%
COCCNC(=O)CN1C(=O)c2cccnc2Sc2ccccc21 -4.1%
O=C(Cn1ncc2c1-c1ccccc1OC2)N1CCN(c2ccccc2)CC1 -18.5%
COc1cccc2c(C)cc3nnc(SCC(=O)Nc4ccc(C)cc4)n3c12 -3.98%
O=C(c1ccc2c(c1)OCO2)c1cn(Cc2ccc(Cl)cc2)c2ccc(F)cc2c1=O -2.73%
Cc1ccc(-c2cn3cccnc3n2)cc1NC(=O)Nc1ccc(F)cc1 -12.9%
COc1ccc2c(c1)c(=O)c(S(=O)(=O)c1ccc(F)cc1)cn2Cc1ccccc1Cl 9.03%
CC(C)(C)OC(=O)N1CCC(c2c(C(=O)N3CCN(c4ccccn4)CC3)cnn2-c2ccc(F)cc2)CC1 -10.9%
CCN(CC)S(=O)(=O)c1ccc(C(=O)NCCSc2c(-c3ccc(F)cc3)[nH]c3ccccc23)cc1 -15.6%
CCCCOc1ccc(C(=O)N2CCCCC2CCN2CCOCC2)cc1 (centres undefined) -10.8%
CC1CCC(NC(=O)c2ccc(CS(=O)(=O)c3ccc(Cl)cc3)o2)CC1 (centres undefined) 20.2%
COc1ccc(CNC(=O)c2cnc(N(C)C)nc2)cc1 -15.1%
CCCOc1cccc(C(=O)N(Cc2sccc2C)C2CCS(=O)(=O)C2)c1 (centres undefined) -5.95%
CC(C)OCCCNC(=O)CN1C(=O)c2cccnc2Sc2ccccc21 -12.3%
CCn1c(=O)cc(OCC(=O)N2CCN(c3ccc(C)cc3)C(C)C2)c2ccccc21 (centres undefined) -12.3%
CC(=O)c1ccc(NC(=O)CSc2nc(-c3ccc(C)cc3)nc3c2c(=O)n(C)c(=O)n3C)cc1 -5.18%
CCC(=O)Nc1ccc2nc(SCCOc3ccc(C)cc3OC)sc2c1 -6%
Cc1cc(Cl)ccc1OCC(=O)N(Cc1sccc1C)C1CCS(=O)(=O)C1 (centres undefined) -21.8%
CCN(CC)CCNC(=O)CN1N=C(c2ccc(OC)cc2)CCC1=O -7.06%
Cc1cccn2cc(-c3cccc(NC(=O)C(C)C)c3)nc12 -27.1%
O=C(Cn1cc(SCc2c(F)cccc2Cl)c2ccccc21)N1CCCCC1 -3.67%
Cn1c(=O)n(Cc2ccccc2)c(=O)c2c1nc1n2CCN1c1ccccc1 -7.02%
COc1ccc(-c2nn3c(-c4ccccc4)nnc3c3ccccc23)cc1 -13.1%
CC(=O)c1ccc(NC(=O)C2CCN(S(=O)(=O)c3c(C)noc3/C=C/c3ccc(C)cc3)CC2)cc1 -19.5%
Oc1ccccc1-c1nc2cnccn2c1Nc1ccc(Cl)cc1 -8.45%
COc1ccc(CNC(=O)CN2C(=O)COc3ccccc32)c(OC)c1 -10.1%
Cc1ccc2nc(NC(=O)CSc3cc(C)[nH]c(=O)n3)sc2c1 -13.1%
CCOc1ccc(C(=O)N2CCc3cc(OC)c(OC)cc3C2COc2ccc3c(C)cc(=O)oc3c2)cc1OCC (centres undefined) -5.55%
CCOc1ccc(CNC(=O)CCCn2c(=O)c3cccn3c3cccnc32)cc1 -2.15%
O=C1CCc2cc(S(=O)(=O)NCc3ccccc3)cc3c2N1CC3 -0.256%
COc1ccc(CCNC(=O)c2cc(Nc3ccccc3)nc3ccccc23)cc1OC -1.98%
COc1cc(NC(=O)CCNC(=O)Cn2ccc3ccccc3c2=O)cc(OC)c1OC -2.28%
COC(=O)c1c(NC(=O)CCCOc2ccc(C)cc2)sc2c1CCCC2 -15.1%
CCn1c(C(=O)Nc2ccccc2C(=O)OC)cc2sc(Cl)cc21 -14.7%
CCCCCCCCCCOc1cc2c(=O)c(C(=O)OCC)c[nH]c2cc1OCC -12.7% [at 5.77 µM]
O=S(=O)(NCCc1csc(-c2cccc(F)c2)n1)c1cc(F)ccc1F -19.8%
Cc1ccccc1Cn1c(SCc2ccc(C(=O)N3CCCCC3)cc2)nc2ccncc21 -17.9%
CCCOc1ccc(OC(=O)c2ccc(-c3ccc(CCC)cn3)cc2)cc1 -24.2%
O=C(CCCCn1c(=O)c2ccccc2n(Cc2ccc(F)cc2Cl)c1=O)NCCc1ccc(Cl)cc1 5.27%
CCCn1ccc2c(OCC(=O)Nc3ccccc3C(=O)OCC)cccc2c1=O -10.2%
COC(=O)c1ccccc1NC(=O)CCCn1c(C)c2cnn(-c3ccccc3)c(=O)c2c1C -15.3%
Cc1nc2c(c(C)nn2-c2ccccc2)c(C)c1CCC(=O)Nc1ccccc1 -5.66%
Cc1ccc(NC(=O)Cn2c(=O)n(Cc3ccc(F)cc3)c(=O)c3cccnc32)cc1C -15%
O=C(Nc1ccc(S(=O)(=O)N(Cc2ccccc2)c2ccccc2)cc1)c1ccccc1F -20.7%
CCN(CC)C(=O)C1=C(C)Nc2nc3ccccc3n2C1c1ccccc1F (centres undefined) -9.35%
CCC(=O)N1CCc2cc(CNC(=O)Nc3cc(OC)c(OC)c(OC)c3)ccc21 -18%
CCOC(=O)c1cc2c(=O)n3ccccc3nc2n(CCCOC)c1=NC(=O)c1c(-c2c(F)cccc2Cl)noc1C -4.42%
COc1ccccc1CNC(=O)Cc1c(C)c2cc3c(C)coc3c(C)c2oc1=O -7.97%
CCOc1ccc(S(=O)(=O)Nc2ccc3c(c2)CCCN3C(=O)c2cccs2)cc1 13.1%
COc1ccc(CNC(=O)CC(C)CC2=NS(=O)(=O)c3ccccc3N2)cc1 (centres undefined) -10.3%
Cc1ccccc1Cn1c(=O)n(Cc2ccco2)c(=O)c2sc3ccccc3c21 -9.43%
CCOc1ccc(CCNC(=O)C2Cc3ccccc3N2C(=O)CC)cc1 (centres undefined) -13.5%
CCOC(=O)c1ccc(Nc2c(-c3ccc(OC)cc3)nc3nc[nH]n23)cc1 -7.5%
O=C(Cc1ccc(NC(=O)N2CCCCc3ccccc32)cc1)NCc1cccc(Br)c1 -1.68%
